Among the data in the antibiotic and cytotoxicity screens of Wong et al. (2023) are cytotoxicity call and growth inhibition call values, retold here.

One experiment relates to HSkMC. Put plainly: cytotoxicity call (relative viability < 0.9). Particulars: 10 µM.
The subject of another experiment is HepG2. Put plainly: cytotoxicity call (relative viability < 0.9). To be noted: 10 µM.
In a further experiment the test system is S. aureus RN4220. Put plainly: growth inhibition call (relative growth <= 0.2). Particulars: 50 µM.

The other results are listed elsewhere or left out.

Regarding `C[C@@H]1CN([C@@H](C)CO)C(=O)c2cc(NS(=O)(=O)c3ccccc3)ccc2O[C@@H](C)CCCCO[C@H]1CN(C)S(=O)(=O)c1ccc(Cl)cc1`, the cytotoxicity call in the experiment on HSkMC and with HepG2 was “inactive” each time. Also, the growth inhibition call with S. aureus RN4220 was “inactive”.
Consider `COc1ccc(S(=O)(=O)N(C)C[C@@H]2Oc3ccc(NC(=O)C4CC4)cc3CC(=O)N([C@H](C)CO)C[C@H]2C)cc1`, for which the cytotoxicity call with HSkMC and in the experiment with HepG2 was “inactive” each time. In addition, in the experiment with S. aureus RN4220, the growth inhibition call is “inactive”.
For the compound `Cc1onc(-c2ccccc2Cl)c1C(=O)NC1C(=O)N2C1SC(C)(C)C2C(=O)[O-].[Na+]` (stereo unspecified), the cytotoxicity call in the experiment with HSkMC and with HepG2 was “inactive” each time. The growth inhibition call with S. aureus RN4220 is “active”.
For the compound `COc1nc2ccc(Br)cc2cc1[C@@H](c1ccccc1)[C@@](O)(CCN(C)C)c1cccc2ccccc12`, the cytotoxicity call with HSkMC and with HepG2 was “inactive” throughout. In addition, the growth inhibition call with S. aureus RN4220 was “inactive”.
With `COc1ccc(S(=O)(=O)Nc2ccc3c(c2)C(=O)N([C@@H](C)CO)C[C@@H](C)[C@H](CN(C)S(=O)(=O)c2cn(C)cn2)OCCCC[C@@H](C)O3)cc1`, the cytotoxicity call with HSkMC and in the experiment on HepG2 was “inactive” each time. Besides, the growth inhibition call with S. aureus RN4220 is “inactive”.
As for `C=CC[C@H](CC(=O)N(CCO)Cc1ccccc1)C(=O)N[C@H](COC(=O)[C@@H](CC=C)CC(=O)OC(C)(C)C)Cc1c[nH]c2ccccc12`, the cytotoxicity call with HSkMC and in the experiment with HepG2 was “inactive” in each case. Further, the growth inhibition call with S. aureus RN4220 is “inactive”.
On to `C[C@@H]1CCCCO[C@H](CN(C)C(=O)CCCN(C)C)[C@H](C)CN([C@@H](C)CO)C(=O)c2cc(N(C)C)ccc2O1`, for which the cytotoxicity call with HSkMC and with HepG2 was “inactive” throughout. The growth inhibition call in the experiment on S. aureus RN4220 was “inactive”.
For the compound `Cc1ccccc1NC(=O)C(C)(C)C`, the cytotoxicity call in the experiment on HSkMC and in the experiment on HepG2 was “inactive” throughout. Besides, the growth inhibition call with S. aureus RN4220 is “inactive”.
Regarding `Cc1noc(C)c1NC(=O)N(C)C[C@H]1OCCCC[C@@H](C)Oc2ccc(NS(=O)(=O)c3cccs3)cc2C(=O)N([C@H](C)CO)C[C@H]1C`, the cytotoxicity call in the experiment on HSkMC and in the experiment on HepG2 was “inactive” in each case. For the same compound, in the experiment on S. aureus RN4220, the growth inhibition call is “inactive”.
As to `C[C@@H]1CN([C@@H](C)CO)C(=O)c2cc(NC(=O)Cn3cnnn3)ccc2O[C@@H]1CN(C)C(=O)Nc1ccc(F)cc1`, the cytotoxicity call with HSkMC and with HepG2 was “inactive” throughout. Further, the growth inhibition call with S. aureus RN4220 was “inactive”.
On to `CN(C)S(=O)(=O)N1CCC[C@H](C(N)=O)C1`, for which the cytotoxicity call in the experiment with HSkMC and in the experiment with HepG2 was “inactive” throughout. The growth inhibition call with S. aureus RN4220 is “inactive”.
With `C=CCOC(=O)[C@H]1[C@@H]2C(=O)O[C@@H](c3ccccc3)[C@@H](c3ccccc3)N2[C@@H](c2ccc(OCCOC(=O)[C@H]3C[C@H]4C(=O)N5CCC[C@H]5C(=O)N4[C@H]3c3ccc(O)cc3)cc2)[C@]12C(=O)Nc1ccccc12`, the cytotoxicity call in the experiment on HSkMC and with HepG2 was “inactive” throughout. Besides, the growth inhibition call in the experiment with S. aureus RN4220 is “inactive”.
As for `Cc1noc(C)c1S(=O)(=O)N(C)C[C@H]1Oc2ccc(NS(=O)(=O)c3ccc(Cl)cc3)cc2CC(=O)N([C@@H](C)CO)C[C@H]1C`, the cytotoxicity call with HSkMC and with HepG2 was “inactive” throughout. The growth inhibition call in the experiment with S. aureus RN4220 was “inactive”.
As to `C[C@@H]1CN([C@H](C)CO)C(=O)c2ccccc2-c2ccccc2CO[C@H]1CN(C)S(=O)(=O)c1ccc(C(F)(F)F)cc1`, the cytotoxicity call in the experiment on HSkMC and in the experiment with HepG2 was “inactive” in each case. Moreover, in the experiment with S. aureus RN4220, the growth inhibition call was “inactive”.
On to `C=CCSC1=N[C@@]2(COCc3ccc(OC)cc3)Oc3ccccc3[C@H]([C@H]2CO[Si](C)(C)C(C)(C)C)N1C(=O)c1ccccc1`, for which the cytotoxicity call in the experiment with HSkMC and in the experiment on HepG2 was “inactive” each time. In addition, in the experiment with S. aureus RN4220, the growth inhibition call is “inactive”.
As for `C[C@H]1CN([C@@H](C)CO)C(=O)Cc2cc(NC(=O)Cn3cnnn3)ccc2O[C@@H]1CN(C)S(=O)(=O)c1cn(C)cn1`, the cytotoxicity call in the experiment with HSkMC and with HepG2 was “inactive” throughout. Further, in the experiment on S. aureus RN4220, the growth inhibition call was “inactive”.
With `C[C@@H]1CN([C@@H](C)CO)C(=O)c2cc(NS(=O)(=O)c3cccs3)ccc2O[C@@H](C)CCCCO[C@@H]1CN(C)Cc1ccccc1`, the cytotoxicity call in the experiment on HSkMC (human skeletal muscle cells) and with HepG2 was “inactive” in each case. Besides, the growth inhibition call with S. aureus RN4220 is “inactive”.
